The BET-seq Pho4 binding data (Le et al. 2018)
The list shows a part of the results. Values were computed here from the reads of four pooled replicates and scatter widely.

Biological target: T1, Pho4 (S. cerevisiae) (UniProt P07270)
T1 sequence: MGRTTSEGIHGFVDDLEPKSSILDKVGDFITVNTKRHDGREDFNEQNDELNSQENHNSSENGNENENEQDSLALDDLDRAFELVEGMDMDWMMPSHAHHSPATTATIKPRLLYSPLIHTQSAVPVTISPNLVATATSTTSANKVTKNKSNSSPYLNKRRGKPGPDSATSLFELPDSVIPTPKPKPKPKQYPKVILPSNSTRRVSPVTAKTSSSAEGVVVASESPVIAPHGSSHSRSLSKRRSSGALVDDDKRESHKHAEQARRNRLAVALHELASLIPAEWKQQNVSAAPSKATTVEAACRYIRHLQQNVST
Test: relative binding free energy (BET-seq); higher = weaker binding
Details: reference: library average

Row | Sequence | relative binding free energy
1 | ATAATCACGTGGTGCG | 0.06 kcal/mol
2 | GTTTACACGTGGGTCA | 0.06 kcal/mol
3 | AGAGTCACGTGGGAAT | 0.09 kcal/mol
4 | CGGTTCACGTGTGGAT | 0.28 kcal/mol
5 | TTAAGCACGTGCTGGA | -0.2 kcal/mol
6 | GGCGACACGTGGGGGT | -0.11 kcal/mol
7 | GTGGACACGTGATCGT | 0.13 kcal/mol
8 | GTTGTCACGTGGATCG | 0.25 kcal/mol
9 | AATATCACGTGGTAGA | 0.08 kcal/mol
10 | TGGTACACGTGAGAGG | 0.26 kcal/mol
11 | GATGACACGTGGTAGA | 0.03 kcal/mol
12 | TCTTGCACGTGGTGTG | -0.1 kcal/mol
13 | GATGCCACGTGATGGG | 0.06 kcal/mol
14 | AGTGGCACGTGAGACT | 0.11 kcal/mol
15 | TTAATCACGTGTGTTC | 0.09 kcal/mol
16 | TAGATCACGTGATGGG | 0.25 kcal/mol
17 | ATGCTCACGTGTAAGT | 0.42 kcal/mol
18 | TGGCGCACGTGGTGGA | -0.13 kcal/mol
19 | GTGATCACGTGATTGG | 0.44 kcal/mol
20 | GATGGCACGTGGAGTA | -0.1 kcal/mol
21 | CTTGACACGTGGTTTT | 0.01 kcal/mol
22 | TATGCCACGTGTGATT | 0.02 kcal/mol
23 | CTTGACACGTGTGTAT | 0.18 kcal/mol
24 | AACGTCACGTGGGGTT | -0.04 kcal/mol
25 | ATTGCCACGTGGTACG | -0.01 kcal/mol

Row | Sequence | relative binding free energy
26 | GGTGTCACGTGAAATA | 0.45 kcal/mol
27 | TGTGACACGTGGTCGA | -0.13 kcal/mol
28 | TTAGGCACGTGGCGGG | -0.13 kcal/mol
29 | GACTACACGTGGGTTG | -0.04 kcal/mol
30 | CTAGGCACGTGGAGTG | -0.2 kcal/mol
31 | TTCTTCACGTGGTGGG | 0.36 kcal/mol
32 | TGTAGCACGTGCATTA | -0.08 kcal/mol
33 | TTGTGCACGTGGAGCT | -0.01 kcal/mol
34 | GTGTCCACGTGAGTGG | 0.2 kcal/mol
35 | TATTACACGTGAGGCG | 0.3 kcal/mol
36 | GGGAGCACGTGGATAT | -0.14 kcal/mol
37 | TAAAGCACGTGTTGCG | -0.01 kcal/mol
38 | CGTTACACGTGGGTGG | -0.07 kcal/mol
39 | CGAGGCACGTGGCGAG | -0.14 kcal/mol
40 | AGCTTCACGTGAGTTT | 0.22 kcal/mol
41 | GGGGGCACGTGTATTG | -0.08 kcal/mol
42 | ATTAGCACGTGGGGAT | -0.24 kcal/mol
43 | TGTACCACGTGTTGGA | -0.04 kcal/mol
44 | GTGCTCACGTGTGCAG | 0.33 kcal/mol
45 | GATGACACGTGGGTTT | 0.04 kcal/mol
46 | CGTCGCACGTGTTCGT | 0.1 kcal/mol
47 | GGAACCACGTGGGAAG | 0.08 kcal/mol
48 | TATGTCACGTGTATAG | 0.07 kcal/mol
49 | AGATGCACGTGATCGG | -0.04 kcal/mol
50 | CTTTGCACGTGTTGAA | 0.13 kcal/mol

Row | Sequence | relative binding free energy
51 | ATGAGCACGTGATTTT | 0.04 kcal/mol
52 | TCGGGCACGTGAACTG | 0.27 kcal/mol
53 | GGGGTCACGTGCTGCG | 0.05 kcal/mol
54 | TATGTCACGTGCTATG | -0.03 kcal/mol
55 | AGTGGCACGTGAGTGT | 0.11 kcal/mol
56 | ATAGCCACGTGTTGGG | -0.21 kcal/mol
57 | GTTGACACGTGTGTCG | 0.13 kcal/mol
58 | GAGGGCACGTGCGGCA | -0.18 kcal/mol
59 | AGGACCACGTGTGTGT | -0.05 kcal/mol
60 | TTTTTCACGTGTCTGC | 0.28 kcal/mol
61 | TATATCACGTGGAATA | 0.22 kcal/mol
62 | TGTCTCACGTGATAAG | 0.42 kcal/mol
63 | AGCGTCACGTGGTGTG | -0.06 kcal/mol
64 | ATTTGCACGTGTATTT | 0.08 kcal/mol
65 | TTTTGCACGTGAAGGC | 0.38 kcal/mol
66 | GAAGCCACGTGGGTTG | -0.18 kcal/mol
67 | TCGTGCACGTGTCAGT | 0.04 kcal/mol
68 | GGTGCCACGTGGTATG | -0.15 kcal/mol
69 | TTTAACACGTGCCGTT | 0.11 kcal/mol
70 | TTTATCACGTGTCTGA | 0.18 kcal/mol
71 | CCGGGCACGTGTGGTT | -0.07 kcal/mol
72 | ACATGCACGTGTGTAA | 0.09 kcal/mol
73 | TGTTGCACGTGTCACG | 0 kcal/mol
74 | TTTAGCACGTGAGCAT | 0.24 kcal/mol
75 | GTTAACACGTGGATGA | 0.06 kcal/mol

Row | Sequence | relative binding free energy
76 | GGGGTCACGTGGACTG | 0.05 kcal/mol
77 | TGAGTCACGTGTGTCT | 0.12 kcal/mol
78 | TATAGCACGTGTCTTA | -0.04 kcal/mol
79 | GGGCGCACGTGAAGTC | 0.32 kcal/mol
80 | GATAGCACGTGTTAGC | 0.17 kcal/mol
81 | TTTATCACGTGGGTCT | 0.08 kcal/mol
82 | TAGTGCACGTGTGTTT | 0.1 kcal/mol
83 | TGGGACACGTGAATTT | 0.38 kcal/mol
84 | TGGCTCACGTGTGGGA | 0.11 kcal/mol
85 | ACAGGCACGTGTTAGG | -0.17 kcal/mol
86 | TGTGTCACGTGTACGT | 0.06 kcal/mol
87 | TCTTGCACGTGGGGCG | -0.1 kcal/mol
88 | AGTGACACGTGGCGGA | -0.1 kcal/mol
89 | CAGGACACGTGTAAGG | 0.27 kcal/mol
90 | GGTCCCACGTGTGGTG | -0.02 kcal/mol
91 | GTGAGCACGTGGAAAG | 0.16 kcal/mol
92 | TAGGGCACGTGGTCTG | -0.25 kcal/mol
93 | TTGGGCACGTGGTGTA | -0.21 kcal/mol
94 | ATGATCACGTGGTATG | 0.12 kcal/mol
95 | TGATACACGTGTGGAA | 0.11 kcal/mol
96 | TTAGACACGTGCTTGG | -0.01 kcal/mol
97 | GTGTACACGTGGGCGC | -0.22 kcal/mol
98 | TAGAACACGTGTTAGG | 0.06 kcal/mol
99 | TTAGCCACGTGTTAGT | -0.11 kcal/mol
100 | TACGACACGTGAGTGG | 0.18 kcal/mol

Row | Sequence | relative binding free energy
101 | TACGTCACGTGTGTTA | 0.06 kcal/mol
102 | TAGCTCACGTGTAAGT | 0.3 kcal/mol
103 | GGGGGCACGTGTCGTT | 0.11 kcal/mol
104 | AGTAACACGTGGTGCG | -0.08 kcal/mol
105 | GGGGTCACGTGTATAA | 0.12 kcal/mol
106 | TGCTCCACGTGAGGTG | 0.21 kcal/mol
107 | ATGCGCACGTGATTGT | -0.04 kcal/mol
108 | GGTAACACGTGTGATG | 0.03 kcal/mol
109 | GTGATCACGTGTCTTG | 0.19 kcal/mol
110 | TTTCGCACGTGTTATG | -0.03 kcal/mol
111 | TGGTTCACGTGTGATT | 0.32 kcal/mol
112 | CGATTCACGTGATGGG | 0.4 kcal/mol
113 | TTCCTCACGTGTTGGG | 0.12 kcal/mol
114 | ATTAGCACGTGTGTTG | 0.06 kcal/mol
115 | GGCGTCACGTGGCTGG | -0.01 kcal/mol
116 | TTTGACACGTGGCGTT | -0.05 kcal/mol
117 | TTTACCACGTGGTGTA | -0.25 kcal/mol
118 | ATAAGCACGTGGGAAG | -0.09 kcal/mol
119 | ACATGCACGTGTTGAT | -0.05 kcal/mol
120 | ATGCTCACGTGGTCGG | 0.06 kcal/mol
121 | ATGGCCACGTGATTTT | 0.19 kcal/mol
122 | ATTAACACGTGATGGA | 0.2 kcal/mol
123 | TGAAGCACGTGAGGAG | 0.25 kcal/mol
124 | ATATTCACGTGGGTAA | 0.15 kcal/mol
125 | TTCTTCACGTGTGACT | 0.27 kcal/mol

Row | Sequence | relative binding free energy
126 | GGCTACACGTGGGCGG | -0.09 kcal/mol
127 | AGTAGCACGTGAGGCG | 0.07 kcal/mol
128 | GCTAGCACGTGTGAGT | 0.16 kcal/mol
129 | AGCCTCACGTGGGGGG | -0.06 kcal/mol
130 | GGCATCACGTGGGGCG | 0.03 kcal/mol
131 | GACTACACGTGTTGTG | 0.18 kcal/mol
132 | TCGTGCACGTGGGGTC | -0.22 kcal/mol
133 | GCTGTCACGTGTGTTA | 0.11 kcal/mol
134 | GTGTTCACGTGAGTCG | 0.16 kcal/mol
135 | TGCTCCACGTGGTTTG | 0.13 kcal/mol
136 | GATTACACGTGGTGCT | 0.14 kcal/mol
137 | TAGCTCACGTGGTGCT | 0.09 kcal/mol
138 | AGATGCACGTGAGGCG | 0.05 kcal/mol
139 | GTATGCACGTGGGTGC | -0.25 kcal/mol
140 | TCTATCACGTGGTGTC | 0.1 kcal/mol
141 | TGATTCACGTGAGTGG | 0.39 kcal/mol
142 | TACTACACGTGTGGGA | 0.14 kcal/mol
143 | CGGTTCACGTGGTGGC | 0.33 kcal/mol
144 | GTTAACACGTGTATTT | 0.09 kcal/mol
145 | AGGATCACGTGCTTGG | 0.1 kcal/mol
146 | CATATCACGTGGGATG | 0.11 kcal/mol
